Results reported in PubChem BioAssay AID360 (National Center for Advancing Translational Sciences (NCATS), 2006).
Out of some 48,000 compounds screened, about 550 (1.1%) were called active. Another 4% or so got no clear call; they are omitted. Cut-off read from the data, not from the text of the source: active = potency below about 15 µM; inconclusive = mostly about 16 µM to 33 µM; inactive = weaker than that. Some of the results follow.

These molecules were tested against Lysosomal acid glucosylceramidase (Homo sapiens) (UniProt P04062) (assay: Glucocerebrosidase). Conditions: purified enzyme, resorufin glucoside fluorescence (screen aimed at inhibitors), 20 min.
In short: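 Normal human glucocerebrosidase (0.2 nM final) was assayed with resorufin β-D-glucopyranoside (30 uM final) in 50mM citric acid/KH2PO4, 10mM sodium taurocholate, 0.01% tween-20, pH 5.9. Compounds were titrated; fluorescence (Ex 548, Em 600) read after 20 min at RT.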
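Note: the screen sought inhibitors.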
Potency is the fitted concentration of half-maximal effect.

Sequence of UniProt P04062 (P04062 whole entry, looked up): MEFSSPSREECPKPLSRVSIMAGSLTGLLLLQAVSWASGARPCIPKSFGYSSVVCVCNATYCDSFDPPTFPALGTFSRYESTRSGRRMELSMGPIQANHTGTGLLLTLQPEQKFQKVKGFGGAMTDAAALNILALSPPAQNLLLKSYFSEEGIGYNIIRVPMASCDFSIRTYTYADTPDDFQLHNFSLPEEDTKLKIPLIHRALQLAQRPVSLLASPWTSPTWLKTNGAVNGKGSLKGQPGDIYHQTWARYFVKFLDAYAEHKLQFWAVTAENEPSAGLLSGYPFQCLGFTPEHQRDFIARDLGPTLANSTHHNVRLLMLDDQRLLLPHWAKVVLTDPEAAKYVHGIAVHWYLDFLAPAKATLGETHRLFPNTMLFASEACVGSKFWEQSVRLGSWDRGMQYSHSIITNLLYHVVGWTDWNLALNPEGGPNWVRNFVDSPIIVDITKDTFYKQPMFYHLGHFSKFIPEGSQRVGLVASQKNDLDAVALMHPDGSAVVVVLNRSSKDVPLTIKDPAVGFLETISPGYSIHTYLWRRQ

Potency, inactive:
CCN(CC)CCCNC(=O)CC1Sc2ccccc2NC1=O (configuration not stated) > 76.9 µM
COc1ccc(-n2nnnc2SCC(=O)Nc2cccc(NC(C)=O)c2)cc1OC > 76.9 µM
CCc1c(C)nc(/N=C(/NC(=O)c2ccccc2)Nc2ccccc2OC)[nH]c1=O > 76.9 µM
CC(c1ccco1)N(Cc1ccco1)C(=O)Nc1ccccc1 (configuration not stated) > 76.9 µM
N#Cc1ccc(CSc2nnc(Cc3cccs3)n2Cc2ccco2)cc1
COCCn1c(SCC(=O)Nc2cccc(C(=O)OC)c2)nc2ccccc2c1=O > 76.9 µM
O=C(NCc1ccccc1Cl)C1CCN(S(=O)(=O)N2CCC3(CC2)OCCO3)CC1 > 76.9 µM
Cc1ccc(S(=O)(=O)CC(c2ccccc2)N2CCOCC2)cc1 (configuration not stated) > 76.9 µM
CCCn1c(SCC(=O)NC)nnc1C(C)C > 76.9 µM
CCOC(=O)C1CCN(C(=O)N(C)C)CC1 > 76.9 µM
CCc1nnc(NC(=O)CSc2nc3c(cc2C#N)CCC3)s1 > 76.9 µM
CS(=O)(=O)N(CCc1ccccc1)CC(=O)Nc1ccc2c(c1)OCO2 > 76.9 µM
C/C(=N\O)C1/C(=N/O)CC2C1C2(C)C (configuration not stated) > 76.9 µM
C=CCc1cccc2cc(C(=O)NC(C)(C)C)c(=O)oc12 > 76.9 µM
CCOC(=O)N1CCN(c2nc(SC)nc3sc4c(c23)CC(C)(C)OC4)CC1 > 76.9 µM
NC(=O)C1(N2CCCCC2)CCN(CC(=O)Nc2ccc(Oc3ccccc3)cc2)CC1 > 76.9 µM
CCCN(Cc1cc2cc(C)ccc2[nH]c1=O)C(=O)c1cccc(OC)c1 > 76.9 µM
O=C(NCC12CC3CC(C1)CC(CNC(=O)N1CCCC1)(C3)C2)N1CCCC1 > 76.9 µM
CCCC(=O)N=C1SC2CS(=O)(=O)CC2N1c1ccc(C(C)=O)cc1 (configuration not stated) > 76.9 µM
Cn1cccc1-c1cc(C(=O)O)[nH]n1 > 76.9 µM
CCCCCc1c(C)nc(N2CCOCC2)[nH]c1=O
COc1cc(NC(=O)C2CCCCC2)c(OC)cc1NC(=O)c1ccco1 > 76.9 µM
COc1ccc(NC(=O)CN2CCN(S(=O)(=O)c3ccc(Cl)cc3)CC2)cc1 > 76.9 µM
C/C(N)=C(/C#N)C(=O)CSc1nnc(Nc2c(C)cccc2C)s1 > 76.9 µM
CCOC(=O)c1ccc(NC(=O)NCc2ccn(CC)n2)cc1 > 76.9 µM
CCOC(=O)c1c(N)sc(C(=O)N2CCCC2)c1C > 76.9 µM
NC(=O)C1(N2CCCCC2)CCN(Cc2ccccc2Cl)CC1 > 76.9 µM
CCN(CC)CCn1c(NCc2cccc(OC)c2)nc2ccccc21 > 76.9 µM
CC1CCN(C(=S)c2ccccc2O)CC1 > 76.9 µM
CCc1ccc(Nc2oc(C)cc(=O)c2C(C)=O)cc1 > 76.9 µM
COc1ccccc1NC(=O)N1CCCC(C(=O)Nc2cccc(C)c2C)C1 (configuration not stated) > 76.9 µM
CCn1c(COc2ccccc2C)nnc1SCC(=O)CC(=O)Nc1ccccc1OC > 76.9 µM
O=C(Cn1nnc2c(cnn2-c2ccc(F)cc2)c1=O)c1ccccc1F > 76.9 µM
CCC(C)Cn1c(C)nc2ccccc21 (configuration not stated) > 76.9 µM
CN(C)c1ccc(C(=O)c2ccccc2C(=O)O)c(O)c1 > 76.9 µM
COc1ccccc1C(=O)N1CCN=C1c1ccccc1 > 76.9 µM
CSCCC(NC(N)=O)C(=O)N(C)CC(=O)Nc1ccc(C)cc1 (configuration not stated) > 76.9 µM
Cc1cnc(NC(=O)CSc2nnc(-c3ccc(Cl)cc3Cl)n2N)s1 > 76.9 µM
O=C(c1noc2c1CCCCC2)N1CCN(C(c2ccccc2)c2ccccc2)CC1 > 15.4 µM
O=C(c1csc2c1CCCCC2)N1CCN(c2ncccn2)CC1 > 76.9 µM
COc1ccccc1N1CCN(C(=O)c2ccc(S(=O)(=O)N3CCCCCC3)cc2)CC1 > 76.9 µM
CCOC(=O)C1=C(Nc2ccccc2)OCC1=O > 76.9 µM
NS(=O)(=O)c1ccc(NC(=O)c2ccccc2C(=O)N2CCCCC2)cc1 > 76.9 µM
CCOC(=O)N1CCN(C(=O)C2c3cc(OC)c(OC)cc3C(=O)N3CCc4ccccc4C23)CC1 (configuration not stated) > 76.9 µM
O=C1NC2=C(C(=O)CCC2)C(c2ccc3ncccc3c2)N1 (configuration not stated) > 76.9 µM
O=C(Nc1nncs1)Oc1ccccc1 > 76.9 µM
O=C1CCCN1c1ccc(S(=O)(=O)N2CCC(c3ccccc3)CC2)cc1 > 76.9 µM
COc1ccc(-c2cc(C(F)(F)F)nc(SCCC(=O)N3CCOCC3)n2)cc1 > 76.9 µM
O=C(Cc1ccc(-n2cccc2)cc1)N1CCc2ccccc21 > 76.9 µM
CC(C)(C)OC(=O)N1CCC[C@H]1c1nnc(SCc2ccc(Cl)cc2Cl)o1 > 76.9 µM
CCCOc1cccc(C(=O)Nc2cc(NC(=O)c3ccco3)ccc2OC)c1 > 76.9 µM
CCSc1cnc(-c2ccccc2)n1CC > 76.9 µM
COc1ccc(CCNC(=O)NC(C(F)(F)F)C(F)(F)F)cc1OC > 76.9 µM
COc1cccc(CN2C(=O)CCC2(C)C(=O)NC2CCCCCC2)c1 (configuration not stated) > 76.9 µM
CC(NC(=O)CSc1nc2ccccc2c(=O)n1CCCO)c1ccccc1 (configuration not stated)
COc1ccc(Cl)cc1C(=O)Nn1cnc2ccccc2c1=O > 76.9 µM
C=CCn1c(CC#N)nnc1N1CCOCC1 > 76.9 µM
COc1ccc(CCNS(=O)(=O)c2ccc3c(c2)CC(C)N3C(C)=O)cc1OC (configuration not stated) > 76.9 µM
Cc1cc(Oc2ccc(=O)n(C)n2)nc(Oc2ccc(=O)[nH]n2)n1 > 76.9 µM
COC(=O)C(C)Sc1nc2c(c(=O)n1-c1ccccc1)SCC2 (configuration not stated) > 76.9 µM
CCN(CC)S(=O)(=O)c1cc(Br)c(C)cc1OC > 76.9 µM
CCN1CCn2c1nc(N1CCOCC1)nc2=O > 76.9 µM
Cc1nc(N2CCC(C)CC2)c2oc3ccccc3c2n1 > 76.9 µM
CCOC(=O)c1cnc(-n2nc(C)cc2C)nc1NC1CCCCC1 > 76.9 µM
Fc1cc(F)c2nc(N3CCCCC3)sc2c1 > 76.9 µM
CSc1cccc(NC(=O)CN(C)S(=O)(=O)c2ccccc2)c1 > 76.9 µM
CCn1cc(C(=O)Nc2cccc(NC(C)=O)c2)c2cc(OC)c(OC)cc2c1=O > 76.9 µM
Cc1nnc(NC(=O)CSc2nnc3scc(-c4ccc(C)c(C)c4)n23)s1 > 76.9 µM
O=C(O)C1[C@H]2C(=O)N(C3CCCC3)C[C@]23C=C[C@H]1O3 (some centres not stated) > 76.9 µM
O=S(=O)(c1cccs1)N1CCN(Cc2nc3ccccc3s2)CC1
COc1cccc(OCCn2ccnc2)c1 > 76.9 µM
O=C(c1noc2c1CCCC2)N1CCOCC1 > 76.9 µM
Cc1cc(C)c2c(n1)sc1c(N3CCN(CCO)CC3)ncnc12 > 76.9 µM
O=C(NCCCN1CCN(c2ccc(F)cc2)CC1)c1cccc(N2CCCC2=O)c1 > 76.9 µM
CCOC(=O)N1CCN(CC(O)c2ccc3c(c2)CCN3)CC1 (configuration not stated) > 76.9 µM
COC(=O)c1[nH]c2cc(OC)c(OC)cc2c1NC(=O)c1cccc(OC)c1 > 76.9 µM
CCOC(=O)c1cc(-c2cc3ccccc3o2)n[nH]1 > 76.9 µM
O=C(CN(Cc1ccco1)C(=O)c1cc(=O)[nH]c2ccccc12)Nc1ccccc1Br > 76.9 µM
Cc1ccc2[nH]c(=O)c(CN(CCCO)S(=O)(=O)c3cccc4nsnc34)cc2c1 > 76.9 µM
COC(=O)c1ccc(CN(c2ccc(C)cc2)S(=O)(=O)c2ccc3c(c2)OCCO3)o1 > 76.9 µM
O=C(NCc1cccnc1)c1cccc(C(F)(F)F)c1 > 76.9 µM
O=c1[nH]c(=O)n(Cc2ccco2)c2c1C(C(F)(F)F)(C(F)(F)F)N=C(C1CCCCC1)N2 > 76.9 µM
COc1ccc2nc(NC3=NCN(CC4CCCO4)CN3)nc(C)c2c1 (configuration not stated) > 76.9 µM
Cc1cccc(N2C(=O)CC(Sc3nc(C)c4c(n3)CCCC4)C2=O)c1 (configuration not stated) > 76.9 µM
CCOC(=O)C(NS(=O)(=O)c1ccc(Br)cc1)C(C)C (configuration not stated) > 76.9 µM
COc1ccc(OC)c(NC(=O)C2CCN(c3nc(C)cc(C)n3)CC2)c1 > 76.9 µM
COc1cc2cc3c(N)c(C(=O)NCc4ccco4)sc3nc2cc1OC > 76.9 µM
CCCCNC(=O)OCCNC(=O)Oc1cccc(C)c1 > 76.9 µM
O=C(Nc1ccccc1)NC1(C(=O)N2CCN(C(=O)c3ccco3)CC2)CCCCC1 > 76.9 µM
COCC(=O)/C=C1\Sc2ccccc2N1C > 76.9 µM
Cc1nc2ncnn2c(N2CCN(c3cccc(C(F)(F)F)c3)CC2)c1C > 76.9 µM
O=C(CCn1nnc2ccccc21)Nc1nnc(Cc2ccc(F)cc2)s1 > 76.9 µM
